{"source": "PubChem BioAssay AID1347165", "about": "(National Center for Advancing Translational Sciences (NCATS), 2019)", "note": "Out of some 220,000 compounds screened, about 5,700 (2.6%) were called active. The inconclusive results got no clear call from the source; some entries with a clear call stand among them for comparison. Calls follow the shape of the dose curve; as a rule, active = well fitted inhibition curve with a large enough effect; inconclusive = small, poorly fitted or top-dose-only effect; inactive = no such curve, though single readings can be large or run the other way. Where the call is inconclusive, the potency comes from a doubtful curve fit. Potency is read from the fitted curve at half-maximal effect; tags tell the direction and shape of the fitted curve.", "data": [{"molecular_target": "Lysine-specific demethylase 5B (Homo sapiens) (UniProt Q9UGL1)", "sequence (Q9UGL1 whole entry, looked up)": "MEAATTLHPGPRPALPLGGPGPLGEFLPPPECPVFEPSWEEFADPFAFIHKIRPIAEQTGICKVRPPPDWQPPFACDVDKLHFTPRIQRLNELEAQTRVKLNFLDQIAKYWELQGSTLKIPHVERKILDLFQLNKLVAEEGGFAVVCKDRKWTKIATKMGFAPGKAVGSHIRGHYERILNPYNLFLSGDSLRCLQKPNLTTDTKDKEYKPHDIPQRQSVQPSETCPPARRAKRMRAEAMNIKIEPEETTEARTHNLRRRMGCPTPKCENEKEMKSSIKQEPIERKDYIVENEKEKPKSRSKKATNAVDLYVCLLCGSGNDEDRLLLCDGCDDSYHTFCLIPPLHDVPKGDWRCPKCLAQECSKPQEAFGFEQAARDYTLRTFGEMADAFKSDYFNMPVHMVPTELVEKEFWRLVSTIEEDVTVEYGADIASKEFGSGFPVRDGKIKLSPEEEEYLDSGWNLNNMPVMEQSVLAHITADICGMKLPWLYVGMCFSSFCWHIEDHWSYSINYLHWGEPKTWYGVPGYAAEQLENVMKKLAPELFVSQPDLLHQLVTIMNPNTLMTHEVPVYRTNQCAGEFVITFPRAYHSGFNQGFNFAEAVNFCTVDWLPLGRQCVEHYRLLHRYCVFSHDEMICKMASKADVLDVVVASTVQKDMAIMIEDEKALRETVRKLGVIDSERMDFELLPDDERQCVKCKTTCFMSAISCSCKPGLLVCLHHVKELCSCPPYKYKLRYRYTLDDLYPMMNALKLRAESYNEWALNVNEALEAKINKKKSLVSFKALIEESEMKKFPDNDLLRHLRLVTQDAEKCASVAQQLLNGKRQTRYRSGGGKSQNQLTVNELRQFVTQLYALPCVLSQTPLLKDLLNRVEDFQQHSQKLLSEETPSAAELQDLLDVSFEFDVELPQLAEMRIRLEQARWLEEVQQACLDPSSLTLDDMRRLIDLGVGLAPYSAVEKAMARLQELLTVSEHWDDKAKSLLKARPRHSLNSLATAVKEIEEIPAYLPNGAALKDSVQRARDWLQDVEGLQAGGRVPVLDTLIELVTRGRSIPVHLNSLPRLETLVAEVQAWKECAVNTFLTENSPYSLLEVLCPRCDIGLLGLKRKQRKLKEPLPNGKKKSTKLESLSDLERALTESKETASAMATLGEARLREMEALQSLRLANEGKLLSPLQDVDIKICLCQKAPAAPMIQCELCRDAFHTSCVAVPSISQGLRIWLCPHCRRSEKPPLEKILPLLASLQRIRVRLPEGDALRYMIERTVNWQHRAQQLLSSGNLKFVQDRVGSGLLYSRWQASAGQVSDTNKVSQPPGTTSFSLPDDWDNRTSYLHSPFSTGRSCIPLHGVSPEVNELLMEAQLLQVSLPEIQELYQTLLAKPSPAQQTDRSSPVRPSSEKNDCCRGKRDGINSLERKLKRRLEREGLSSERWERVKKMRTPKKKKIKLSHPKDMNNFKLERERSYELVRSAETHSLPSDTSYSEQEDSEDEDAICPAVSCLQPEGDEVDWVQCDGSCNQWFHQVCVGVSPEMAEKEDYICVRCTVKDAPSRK", "test": "Primary screen for KDM5B Histone Demethylases FDH-coupled qHTS; also: nearly all actives have a fitted effect of over 70% in size; as to activity change, negative = inhibition: 0% is about no effect", "conditions": "FDH-coupled NADH fluorescence (FDH is formaldehyde dehydrogenase); activity change, negative = inhibition: at 57.7 µM (top of the series) unless noted", "summary_of_the_method": "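Here, H3K4me3 peptide (12.5 µM in substrate mix) is demethylated by KDM5BΔAP, 200 nM final, after 10 min compound exposure. Formaldehyde product is coupled through FDH (0.25 U/mL in mix) to NADH fluorescence; 30-min ΔRFU feeds dose-response curves.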", "values": [{"smiles": "O=C(Cc1c[nH]c2ncc(-c3ccccc3)cc12)NCCc1ccccc1", "activity change, negative = inhibition": "inactive: -29.3% [at 86.2 µM]"}, {"smiles": "CCOC(=O)C1CCCN(C(=O)Cn2ncc3c4ccccc4n(Cc4ccccc4)c3c2=O)C1", "note": "(stereo unspecified)", "Potency": "inconclusive: 22.4 µM [inhibitor, partial curve, poor fit]"}, {"smiles": "COC(=O)[C@@H]1Cc2c([nH]c3ccccc23)[C@@H]2C[C@@H](NCCNC(C)=O)C[C@@H](c3ccc(F)c(F)c3)N12", "Potency": "inconclusive: 3.16 µM [inhibitor, full curve]"}, {"smiles": "O=C(NCCn1ccn2nc(-c3ccc(F)cc3)cc2c1=O)c1ccc(F)cc1", "Potency": "inconclusive: 17.8 µM [inhibitor, single point]"}, {"smiles": "CC(Oc1ccccc1F)C(=O)Nc1ccc(-c2nc3ccccc3o2)cc1", "note": "(stereo unspecified)", "Potency": "inconclusive: 28.2 µM [inhibitor, partial curve, poor fit]"}, {"smiles": "CC(=O)Nc1nc2n(n1)C(c1ccc(Cl)cc1)C=C(c1ccc(Cl)cc1)N2", "note": "(stereo unspecified)", "Potency": "inconclusive: 28.2 µM [inhibitor, single point]"}, {"smiles": "O=C(C1CCCC1)N1CCCC(Cc2nc(C3CCOCC3)no2)C1", "note": "(stereo unspecified)", "Potency": "inconclusive: 31.6 µM [inhibitor, single point]"}, {"smiles": "CC(=O)c1c(C)[nH]c(-c2csc(CC(=O)Nc3ccc(C)cc3C)n2)c1C", "activity change, negative = inhibition": "inactive: -9.17%"}, {"smiles": "COc1nc2ccccc2nc1CCC(=O)N[C@H]1COC[C@H]1Cc1cc(C)no1", "Potency": "active: 28.2 µM"}, {"smiles": "Cc1cc(=O)c2c([nH]1)c(C)cc1[nH]c(C)c(C)c12", "Potency": "inconclusive: 22.4 µM [inhibitor, partial curve, poor fit]"}, {"smiles": "CCOC(=O)c1cnc2ccc(C)cc2c1Nc1ccc(N(CC)CC)cc1", "Potency": "inconclusive: 15.8 µM [inhibitor, partial curve, poor fit]"}, {"smiles": "O=C(Nc1ccc2oc(-c3ccccc3)nc2c1)c1ccco1", "Potency": "inconclusive: 39.8 µM [inhibitor, partial curve, poor fit]"}, {"smiles": "O=C(CCN1CCC(c2cccs2)=N1)c1cccs1", "Potency": "inconclusive: 25.1 µM [inhibitor, single point]"}, {"smiles": "COc1ccccc1-c1ccnc(N[C@H]2CO[C@H]3[C@@H]2OC[C@@H]3NC(=O)NC2CCCCC2)n1", "Potency": "inconclusive: 28.2 µM [inhibitor, partial curve, poor fit]"}, {"smiles": "CN1CCN(c2cc(=O)c3ccnc(-c4ccccc4F)c3o2)CC1", "Potency": "active: 35.5 µM"}, {"smiles": "Cn1c(CN(CCN2CCCCC2)CC2CCCN(C3CCCC3)C2)nc2ccccc21", "note": "(stereo unspecified)", "Potency": "inconclusive: 5.62 µM [inhibitor, partial curve]"}, {"smiles": "COc1ccccc1C(C)N(C)C(=O)Cc1c(C)nc2ccccc2c1C", "note": "(stereo unspecified)", "activity change, negative = inhibition": "inactive: -0.305%"}, {"smiles": "COc1ccc2c(CNC3CCCCCC3)c(C(=O)O)n(Cc3ccccc3F)c2c1", "Potency": "inconclusive: 31.6 µM [inhibitor, partial curve, poor fit]"}, {"smiles": "Cn1c(N)c(C(=O)Nc2ccc(-c3ccccc3)cc2)sc1=S", "Potency": "inconclusive: 31.6 µM [inhibitor, single point]"}, {"smiles": "CCc1nc2c(c(-c3ccc(O)cc3)n1)CCN(Cc1cccn1C)CC2", "activity change, negative = inhibition": "inactive: -2.76%"}, {"smiles": "COc1ccc(CNC(=S)N2CCN(Cc3ccccc3)CC2)cc1", "Potency": "inconclusive: 25.1 µM [inhibitor, single point]"}, {"smiles": "Cc1nn(Cc2cccc(Cl)c2)c(C)c1NS(=O)(=O)c1c(C)nn(C(F)F)c1C", "activity change, negative = inhibition": "inactive: -2.99%"}, {"smiles": "CCCC(=O)Nc1cccc(C(=O)NCCN2N=C(c3ccccc3)CCC2=O)c1", "Potency": "inconclusive: 35.5 µM [inhibitor, partial curve, poor fit]"}, {"smiles": "Oc1ccc(Cl)cc1C=NCc1cccc(C(F)(F)F)c1", "activity change, negative = inhibition": "inactive: 8.29%"}, {"smiles": "CCOc1ccc2c(c1)c(=O)c(S(=O)(=O)c1ccccc1)cn2CC(=O)Nc1cccc(Cl)c1", "Potency": "inconclusive: 22.4 µM [inhibitor, single point]"}, {"smiles": "COc1cc(C)cc2oc(=O)c(CC(=O)NCc3ccc(F)cc3)c(C)c12", "activity change, negative = inhibition": "inactive: 9.46%"}, {"smiles": "Cc1ccc(CCNC(=O)c2cc3c(-c4ccccc4F)nn(C)c3s2)cc1", "Potency": "inconclusive: 31.6 µM [inhibitor, partial curve, poor fit]"}, {"smiles": "COc1ccc2c(C)c(CCC(=O)NCc3ccc(S(N)(=O)=O)cc3)c(=O)oc2c1C", "Potency": "inconclusive: 17.8 µM [inhibitor, partial curve, poor fit]"}, {"smiles": "CC(C)OCC(=O)N1CCN(c2nc(-c3ccccc3)nc3c2CCC3)CC1", "Potency": "inconclusive: 17.8 µM [inhibitor, partial curve, poor fit]"}, {"smiles": "CCn1c(=O)c2ccccc2n(CC(=O)Nc2cnc3ccccc3c2)c1=O", "activity change, negative = inhibition": "inactive: 9.32%"}, {"smiles": "CC(NC(=O)c1ccc(-c2ccccc2)cc1)C(c1ccccc1)N1CCOCC1", "note": "(stereo unspecified)", "Potency": "inconclusive: 2 µM [inhibitor, full curve, poor fit]"}, {"smiles": "O=C(NCc1ccc(Cl)nc1)c1ccc2cncn2c1", "Potency": "active: 35.5 µM"}, {"smiles": "Cn1cc(-c2ccncc2)cc1C(=O)NCc1ccc(Cl)cc1", "Potency": "inconclusive: 22.4 µM [inhibitor, partial curve]"}, {"smiles": "O=c1[nH]c2ccc(NCc3ccc(-c4ccccc4)o3)cc2[nH]1", "Potency": "inconclusive: 14.1 µM [inhibitor, partial curve, poor fit]"}, {"smiles": "O=C(c1ccncc1)N(Cc1ccccc1)Cc1cc2ccccc2[nH]c1=O", "Potency": "inconclusive: 22.4 µM [inhibitor, partial curve, poor fit]"}, {"smiles": "O=C(N/N=C/c1ccccc1O)C1CCCC1", "Potency": "inconclusive: 20 µM [inhibitor, partial curve, poor fit]"}, {"smiles": "CNc1ncccc1C(=O)N[C@@H]1COCC[C@@H]1OCc1ccccc1", "Potency": "active: 28.2 µM"}, {"smiles": "Cc1nc(-c2c3n(c(=O)n(CC(=O)NCc4ccccc4)c2=O)CCCC3)no1", "activity change, negative = inhibition": "inactive: -6.26%"}, {"smiles": "Cn1nc(C2CCNC2)c2c(C(=O)NCc3cccs3)cc(C3CC3)nc21", "note": "(stereo unspecified)", "Potency": "inconclusive: 56.2 µM [inhibitor, partial curve, poor fit]"}, {"smiles": "COc1ccc(Cl)cc1S(=O)(=O)N1CCC(n2cnnc2C(C)C)CC1", "activity change, negative = inhibition": "inactive: 9.46%"}, {"smiles": "CCCn1nc(C(=O)Nc2cccc(C(=O)Nc3cccc(C(F)(F)F)c3)c2)c2ccccc2c1=O", "activity change, negative = inhibition": "inactive: 5.54%"}, {"smiles": "CCN(CCCNC(=O)c1nnn2cc(-c3ccccc3)[nH]c(=O)c12)c1ccccc1", "Potency": "inconclusive: 22.4 µM [inhibitor, single point]"}, {"smiles": "COCCOc1cc(NC(=O)c2n[nH]c(=O)c3ccccc23)ccc1OC", "activity change, negative = inhibition": "inactive: 18.2%"}, {"smiles": "Cc1ccc(CNC(=O)CC2C=CCC2)cn1", "note": "(stereo unspecified)", "activity change, negative = inhibition": "inactive: -2.13%"}, {"smiles": "COC(=O)c1cc(Cl)ccc1NC(=O)CSc1ncc(S(=O)(=O)c2ccc(Br)cc2)c(=O)[nH]1", "Potency": "inconclusive: 35.5 µM [inhibitor, single point]"}, {"smiles": "COc1ccc(-c2nccn3cc(C(=O)NCc4nc5ccccc5n4C)nc23)cc1", "Potency": "active: 7.94 µM"}, {"smiles": "c1ccc(Nc2cnc3ccc(-n4ccnc4)nn23)cc1", "Potency": "inconclusive: 39.8 µM [inhibitor, partial curve]"}, {"smiles": "CC1=C[C@@H](CN2CCN(c3ccccn3)CC2)[C@H](C(C)C)C[C@H]1Cc1nnc(C)o1", "Potency": "inconclusive: 35.5 µM [inhibitor, single point]"}, {"smiles": "CC(C)CCN1CCC2(CN[S+](=O)([O-])c3ccccc3N2)C1", "note": "(stereo unspecified)", "Potency": "inconclusive: 28.2 µM [inhibitor, partial curve]"}, {"smiles": "Cc1cc2nc(-c3ccc(SCc4ccccn4)nc3)[nH]c2cc1C", "Potency": "inconclusive: 31.6 µM [inhibitor, partial curve, poor fit]"}, {"smiles": "O=c1cc(CN(Cc2ccc(F)cc2)C2CCCCC2)nc2ccccn12", "Potency": "inconclusive: 31.6 µM [inhibitor, partial curve, poor fit]"}, {"smiles": "O=C(Nc1nc(-c2ccncc2)cs1)c1ccc(S(=O)(=O)N2CCCCC2)cc1", "Potency": "inconclusive: 10 µM [inhibitor, partial curve, poor fit]"}, {"smiles": "Cc1ccc(NS(=O)(=O)c2cc3[nH]c(=O)c(=O)[nH]c3cc2C)cc1N(C)C", "Potency": "inconclusive: 44.7 µM [inhibitor, single point]"}, {"smiles": "Cc1ccc(NC(=O)CCCn2c(=O)c3cccn3c3cccnc32)cc1C", "Potency": "inconclusive: 25.1 µM [inhibitor, single point]"}, {"smiles": "Cc1cc(=O)n(CC(=O)Nc2ccc(N(C)C)cc2)c(-c2ccc(Cl)cc2)n1", "activity change, negative = inhibition": "inactive: -4.2%"}, {"smiles": "COc1cc(/C=C/C(=O)OC(C)C(=O)c2ccc(C)cc2)ccc1OCC#N", "note": "(stereo unspecified)", "Potency": "inconclusive: 39.8 µM [inhibitor, single point]"}, {"smiles": "COc1ccc(OC)c(CNC(=O)CC2C(=O)NCCN2CC=C(C)C)c1", "note": "(stereo unspecified)", "Potency": "inconclusive: 14.1 µM [inhibitor, partial curve, poor fit]"}, {"smiles": "COCC1CN(C)CC12CCN(C(=O)Cc1ccc(OC)cc1)CC2", "note": "(stereo unspecified)", "Potency": "inconclusive: 22.4 µM [inhibitor, partial curve, poor fit]"}, {"smiles": "Cn1cc(CN2C[C@@H](F)[C@@H](OCc3nc4ccccc4o3)C2)c2ccccc21", "Potency": "inconclusive: 25.1 µM [inhibitor, partial curve]"}, {"smiles": "Cn1c(=O)c2c(nc(NCCc3ccccc3)n2Cc2ccc(Cl)cc2)n(C)c1=O", "Potency": "inconclusive: 28.2 µM [inhibitor, single point]"}, {"smiles": "O=C(O)/C=C/c1cccc(I)c1", "activity change, negative = inhibition": "inactive: 25.9%"}, {"smiles": "CCOC(=O)c1cc(S(=O)(=O)NCc2cccc(Cl)c2)[nH]n1", "Potency": "inconclusive: 44.7 µM [inhibitor, single point]"}, {"smiles": "Cc1ccc(NC(=O)c2cc3c(cc2C)OCCCO3)cc1C", "activity change, negative = inhibition": "inactive: 8.03%"}, {"smiles": "CSc1ccc(-c2nc3c([nH]2)CC(C)(C)CNC3=O)cc1", "Potency": "active: 28.2 µM"}, {"smiles": "Cc1cc(-n2nnnc2N2CCN(C(=O)Nc3ccc(C)c(F)c3)CC2)ccc1F", "activity change, negative = inhibition": "inactive: -7.31% [at 115 µM]"}, {"smiles": "Cc1cn2nc(C(=O)Nc3cccc(F)c3C)cc2c(N(C)Cc2ccccc2)n1", "Potency": "active: 28.2 µM"}]}]}
